Reference: article PMC4336329 (PLoS ONE, 2015)
The whole screen tested about 310,000 compounds, of which about 14,000 (4.5%) showed an effect of 50% or more. The effect is printed as a negative number. The list shows a part of the results.

molecular target: human ether-à-go-go-related gene (hERG) potassium channel (human, UniProt Q12809); assay: primary screen, population patch clamp on CHO cells stably expressing hERG
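Further: peak tail current of the secondary pulse compared with the same well before compound.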

Chain of human ether-à-go-go-related gene (hERG) potassium channel (Q12809 whole entry, looked up): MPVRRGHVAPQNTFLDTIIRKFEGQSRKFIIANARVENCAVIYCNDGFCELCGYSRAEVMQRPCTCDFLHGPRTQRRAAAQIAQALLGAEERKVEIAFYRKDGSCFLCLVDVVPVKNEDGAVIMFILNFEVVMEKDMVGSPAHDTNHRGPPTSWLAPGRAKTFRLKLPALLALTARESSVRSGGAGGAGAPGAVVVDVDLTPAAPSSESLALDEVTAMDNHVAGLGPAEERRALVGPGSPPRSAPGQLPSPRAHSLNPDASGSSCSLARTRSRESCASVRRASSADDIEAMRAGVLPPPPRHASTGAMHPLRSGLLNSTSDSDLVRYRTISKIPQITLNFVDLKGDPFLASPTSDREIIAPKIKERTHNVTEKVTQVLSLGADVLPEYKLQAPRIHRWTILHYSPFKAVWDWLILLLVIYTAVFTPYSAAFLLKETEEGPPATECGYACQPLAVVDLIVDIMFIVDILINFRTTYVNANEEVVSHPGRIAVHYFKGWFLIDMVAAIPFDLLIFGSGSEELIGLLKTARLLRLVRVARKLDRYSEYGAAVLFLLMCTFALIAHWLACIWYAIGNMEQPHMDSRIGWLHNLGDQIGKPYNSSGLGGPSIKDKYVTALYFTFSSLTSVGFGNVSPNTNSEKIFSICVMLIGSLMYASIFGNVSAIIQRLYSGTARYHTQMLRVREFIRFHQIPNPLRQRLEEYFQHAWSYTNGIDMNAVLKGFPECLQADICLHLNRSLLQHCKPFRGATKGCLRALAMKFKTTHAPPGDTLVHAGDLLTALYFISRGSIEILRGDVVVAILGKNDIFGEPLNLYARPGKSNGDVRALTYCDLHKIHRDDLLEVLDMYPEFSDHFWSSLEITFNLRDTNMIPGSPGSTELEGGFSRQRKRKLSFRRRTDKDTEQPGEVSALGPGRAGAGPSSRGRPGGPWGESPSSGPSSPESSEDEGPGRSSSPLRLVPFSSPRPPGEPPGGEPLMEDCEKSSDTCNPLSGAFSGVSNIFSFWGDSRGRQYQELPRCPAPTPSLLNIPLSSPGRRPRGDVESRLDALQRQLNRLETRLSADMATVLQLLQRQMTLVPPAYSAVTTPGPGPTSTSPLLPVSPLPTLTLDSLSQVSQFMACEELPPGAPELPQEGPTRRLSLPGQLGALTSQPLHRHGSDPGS

| SMILES | hERG current change (%, negative = inhibition) at 10uM [%] |
| --- | --- |
| COc1ccccc1C(=O)NCCOc1ccc(C)c(C)c1 | 18.5 |
| CC1CCN(c2[nH]c(=S)c(C#N)c3c2CCCC3)CC1 | 12.9 |
| O=C(NNC(=O)c1ccc(Cl)cc1Cl)c1cnccn1 | -6.19 |
| Cc1ccc(SC(C)C(=O)NC(N)=O)c(C)c1 (stereo not shown) | 17 |
| CC(C)N(C(=O)COC(=O)c1cccc(C(=O)OCC(=O)N(C(C)C)C(C)C)n1)C(C)C | 12.5 |
| Cc1nc2ccccc2n1CCc1nc2c3ccccc3nc(=S)n2[nH]1 | 12.4 |
| O=C(NCCCN1CCN(CCCNC(=O)c2ccccc2F)CC1)c1ccccc1F | -53 |
| CCCN1CCC(N2CCCC(C(=O)O)C2)CC1.Cl (stereo not shown) | 17.8 |
| CCOC(=O)CC1CCCCN1Cc1nc(-c2ccc(F)c(OC)c2)oc1C (stereo not shown) | -65.5 |
| Cc1ccc(NC(=O)C2CCCC2)cc1S(=O)(=O)N1CCOCC1 | -12.4 |
| CCC(Sc1ncccc1C(=O)O)C(=O)N1CCOCC1 (stereo not shown) | -1.88 |
| CN(C)CCNC(=O)c1cc2sc3ccccc3c2s1.Cl | -31.5 |
| CC1CN(C(=O)CCC(=O)N2CCC3(CC2)OCCO3)c2cc(Cl)ccc2O1 (stereo not shown) | -4.38 |
| C=CCN1C=C2C(=O)C(C)(OC(=O)CCC(=O)OC)C(=O)C(Br)=C2C=C1c1ccc(OC)cc1 (stereo not shown) | 4.2 |
| CCC(=O)NCc1ccc(-c2nc3ncccc3o2)cc1 | 13 |
| CCN1CCCC1Cn1cnc2c([nH]c3cc(OC)ccc32)c1=O (stereo not shown) | -63.8 |
| COCc1cc(CN(C)C(=O)c2oc3c(F)cccc3c2C)[nH]n1 | 8.21 |
| O=C(CN1CCN(C(c2ccccc2)c2ccccc2)CC1)N1N=CCC1c1ccccc1 (stereo not shown) | -50.1 |
| CCn1c(Cc2ccccc2)nnc1SCC(=O)Nc1nnc(-c2ccccc2)s1 | 1.64 |
| COC(=O)CN(C(=S)Nc1ccccc1)C1CC(=O)N(c2ccc(OC)cc2)C1=O (stereo not shown) | -6.5 |
| N#CCCn1cc(C=C2C(=O)NC(=O)NC2=O)c(-c2ccccc2)n1 | 25.2 |
| O=S(=O)(NC1CCCc2ccccc21)c1cnc[nH]1 (stereo not shown) | 0.154 |
| COc1ccc(Cc2nnc(NC(=O)CSc3ccc(C)cc3)s2)cc1OC | 5.26 |
| CC(C)(Oc1ccc(Cl)cc1)C(=O)Nc1c2c(nn1C(C)(C)C)CS(=O)(=O)C2 | -48.3 |
| O=C(O)C(=O)O.OCCN1CCN(CC(O)COC(c2ccc(F)cc2)c2ccc(F)cc2)CC1 (stereo not shown) | -61.9 |
